The campaign covered roughly 360,000 compounds. About 16,000 (4.4%) were called active. Inconclusive results, whose numbers are uncertain, are shown with a selection of clear calls. Calls follow the shape of the dose curve; as a rule, active = well fitted inhibition curve with a large enough effect; inconclusive = small, poorly fitted or top-dose-only effect; inactive = no such curve, though single readings can be large or run the other way. Potencies beside an inconclusive call are fits to weak or partial responses and may not hold up.
What follows are molecules tested against Bromodomain adjacent to zinc finger domain protein 2B (Homo sapiens) (UniProt Q9UIF8) (assay: qHTS Assay for Inhibitors of BAZ2B). Conditions: AlphaScreen BAZ2B-H3K14Ac peptide displacement; series mostly up to 114 µM.
Chain of UniProt Q9UIF8 (Q9UIF8 whole entry, looked up, the tested form may be a part): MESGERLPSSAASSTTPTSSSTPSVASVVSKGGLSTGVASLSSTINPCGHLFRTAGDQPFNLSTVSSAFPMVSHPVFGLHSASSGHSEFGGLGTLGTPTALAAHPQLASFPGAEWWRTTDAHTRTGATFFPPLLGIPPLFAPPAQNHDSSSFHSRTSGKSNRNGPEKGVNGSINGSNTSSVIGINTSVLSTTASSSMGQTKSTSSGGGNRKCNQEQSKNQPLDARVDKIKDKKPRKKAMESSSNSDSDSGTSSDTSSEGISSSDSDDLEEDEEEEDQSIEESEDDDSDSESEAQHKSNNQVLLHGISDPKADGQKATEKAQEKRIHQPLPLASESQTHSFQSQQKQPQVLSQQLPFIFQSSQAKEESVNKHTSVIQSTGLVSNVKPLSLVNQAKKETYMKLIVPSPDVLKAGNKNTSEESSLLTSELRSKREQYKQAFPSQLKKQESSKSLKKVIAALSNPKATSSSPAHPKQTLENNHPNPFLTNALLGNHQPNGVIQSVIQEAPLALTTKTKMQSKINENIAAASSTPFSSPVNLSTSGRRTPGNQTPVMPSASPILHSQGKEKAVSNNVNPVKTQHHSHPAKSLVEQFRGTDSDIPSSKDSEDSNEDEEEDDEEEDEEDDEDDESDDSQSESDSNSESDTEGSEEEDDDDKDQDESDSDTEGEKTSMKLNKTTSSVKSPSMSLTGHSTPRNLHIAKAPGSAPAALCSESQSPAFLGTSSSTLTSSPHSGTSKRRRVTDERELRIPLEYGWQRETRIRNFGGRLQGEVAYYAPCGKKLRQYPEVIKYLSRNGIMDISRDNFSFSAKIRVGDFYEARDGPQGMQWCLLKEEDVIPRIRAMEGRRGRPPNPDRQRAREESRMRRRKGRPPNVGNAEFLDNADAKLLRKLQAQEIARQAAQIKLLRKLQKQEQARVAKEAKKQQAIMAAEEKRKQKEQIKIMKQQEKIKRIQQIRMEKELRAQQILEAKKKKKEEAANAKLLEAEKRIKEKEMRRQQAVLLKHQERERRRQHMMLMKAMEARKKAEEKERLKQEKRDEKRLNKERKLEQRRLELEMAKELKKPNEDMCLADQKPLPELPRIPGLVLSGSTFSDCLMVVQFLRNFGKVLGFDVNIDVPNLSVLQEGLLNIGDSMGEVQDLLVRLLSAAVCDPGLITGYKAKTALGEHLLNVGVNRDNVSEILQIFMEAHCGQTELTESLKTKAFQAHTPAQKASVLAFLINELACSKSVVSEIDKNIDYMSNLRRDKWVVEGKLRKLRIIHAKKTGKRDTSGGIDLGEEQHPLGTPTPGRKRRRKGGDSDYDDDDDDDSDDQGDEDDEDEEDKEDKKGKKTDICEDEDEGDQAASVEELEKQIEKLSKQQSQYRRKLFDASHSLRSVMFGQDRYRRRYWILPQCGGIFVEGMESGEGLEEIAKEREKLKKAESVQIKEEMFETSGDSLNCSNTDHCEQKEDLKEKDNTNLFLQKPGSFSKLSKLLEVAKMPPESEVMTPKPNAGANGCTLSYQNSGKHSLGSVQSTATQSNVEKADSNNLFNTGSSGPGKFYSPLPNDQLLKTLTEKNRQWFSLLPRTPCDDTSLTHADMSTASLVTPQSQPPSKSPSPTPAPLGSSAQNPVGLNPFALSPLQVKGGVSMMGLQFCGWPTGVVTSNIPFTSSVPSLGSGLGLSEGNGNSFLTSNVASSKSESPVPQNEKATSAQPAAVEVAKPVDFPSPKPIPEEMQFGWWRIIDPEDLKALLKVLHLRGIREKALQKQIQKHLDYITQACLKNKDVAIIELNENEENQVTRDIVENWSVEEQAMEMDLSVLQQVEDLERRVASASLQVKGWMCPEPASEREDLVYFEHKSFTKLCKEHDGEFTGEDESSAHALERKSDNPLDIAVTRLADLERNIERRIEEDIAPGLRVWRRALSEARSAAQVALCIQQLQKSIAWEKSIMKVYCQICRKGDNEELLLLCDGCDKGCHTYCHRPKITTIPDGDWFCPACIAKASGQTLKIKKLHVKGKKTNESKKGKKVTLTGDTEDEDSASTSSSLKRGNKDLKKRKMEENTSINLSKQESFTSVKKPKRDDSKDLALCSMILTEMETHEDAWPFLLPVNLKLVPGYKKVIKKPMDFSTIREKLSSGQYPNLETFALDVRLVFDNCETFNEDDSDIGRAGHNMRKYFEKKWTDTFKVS
How it was run: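 Multi-concentration screen (max 110 uM) measuring displacement of acetylated histone H3 peptide from BAZ2B by AlphaScreen, using 50 nM protein, 50 nM peptide and 10 ug/mL streptavidin donor plus Ni-chelate acceptor beads.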
In the case of `CN1C2=C(C#N)C(c3ccccc3)(C(F)(F)F)NC(=O)N2c2ccccc21` (stereo not given), the Potency was inconclusive: 89.1 µM [inhibitor, single point]. With `COc1ccc(NCc2nnc(SCC(=O)Nc3ccc(OC)cc3)n2C)cc1` the Potency was inconclusive: 79.4 µM [inhibitor, single point]. In the case of `Nc1nc(-c2cccs2)c(NC(=O)c2ccccc2)s1`, the Potency was inconclusive: 89.1 µM [inhibitor, single point]. `OCCn1c(-c2ccc(F)cc2)csc1=Nc1ccccc1` was tested, and the Potency was active: 25.1 µM. In the case of `COc1ccccc1NC(=O)C1=C(C)NC(=O)NC1c1ccc(C)cc1` (stereo not given), the Potency was “inactive”. With `O=C(NC(c1ccccc1)c1cc(Cl)c2cccnc2c1O)c1cccnc1` (stereo not given) the Potency was “inactive”. With `O=C(CCC(=O)N1CC2CCCN2c2ccccc21)NCc1ccccc1F` (stereo not given) the Potency was “inactive”. In the case of `CCOC(=O)Cc1c(C)nc2c(-c3ccc(OC)c(OC)c3)c(C)nn2c1C`, the Potency was “inactive”. With `Cc1nc2c(C#N)c[nH]n2c(=O)c1CCO` the Potency was inconclusive: 89.1 µM [inhibitor, single point]. `COc1cccc2c1OC[C@@H](CO)[C@H]2N(C)C(=O)Nc1ccc(Cl)cc1Cl` was tested, and the Potency was “inactive”. With `COc1ccc(N2C(=O)[C@@H]3[C@H](C2=O)[C@H](C(=O)c2ccc(OC(C)=O)cc2)N2N=CC=C[C@@H]32)cc1` the Potency was inconclusive: 89.1 µM [inhibitor, single point]. `C(=N\Nc1nc(N2CCCCCC2)nc(N2CCCCCC2)n1)/c1ccccc1` was tested, and the Potency was inconclusive: 79.4 µM [inhibitor, partial curve]. With `COc1cc(/C=C2\Oc3cc(O)ccc3C2=O)ccc1O` the Potency was “inactive”. `O=C(NCc1ccco1)c1ccc(Cn2c(SCc3ccc(F)cc3)nc3cccnc32)cc1` was tested, and the Potency was inconclusive: 70.8 µM [inhibitor, single point]. With `O=C(c1ccccn1)N(Cc1ccco1)C1(C(=O)NC2CCCC2)CCCCC1` the Potency was “inactive”. For `Cc1cccc(NC(=O)Cn2c(O)c(N=NC(=O)c3ccncc3)c3ccccc32)c1`, the Potency was inconclusive: 89.1 µM [inhibitor, single point]. For `O=c1cc(O)c2c(=O)n(C3CCCCC3)c3ccccc3c2o1`, the Potency was inconclusive: 56.2 µM [inhibitor, partial curve]. `COc1ccccc1C(=O)NCCC(=O)N(C)CC(=O)Nc1ccc(Cl)cc1` was tested, and the Potency was “inactive”. For `Cc1ccccc1N=Nc1c(C)[nH]n(-c2ccccc2)c1=O`, the Potency was inconclusive: 1.78 µM [inhibitor, full curve, poor fit]. With `CCc1c(C)sc(NC(=O)c2ccoc2C)c1C(N)=O` the Potency was inconclusive: 50.1 µM [inhibitor, partial curve].

Source: PubChem BioAssay AID504333 (National Center for Advancing Translational Sciences (NCATS), 2011)
Also: nearly all actives have a fitted effect of over 60% in size.
Potency is read from the fitted curve at half-maximal effect; tags tell the direction and shape of the fitted curve.
